# Measurements from the supplement of paper PMC8728848.
# The other results are listed elsewhere or left out.
# Experiments:
# Assay in all cases: glycan array binding signal (z-score within array); higher = stronger binding
# Details in all cases: glycan notation: IUPAC condensed, linker removed
# [1] = biological target: Neu5Ac(a2-6)Gal(b1-4)GlcNAc(b1-3)Gal(b1-4)GlcNAc(b1-3)GalNAc
# How it was run: (§1)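 Glycan array data came from 3228 arrays in the Consortium for Functional Glycomics database, and only arrays with an available protein sequence were kept. Glycan names were put into IUPAC-condensed notation, and columns mapping to the same glycan were averaged. The binding signal is a within-array Z-score, averaged across arrays of one protein sequence run at different concentrations or buffers and across linkers. A negative Z-score can be read as non-binding.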
# [2] = biological target: Neu5Ac(a2-6)Gal(b1-4)GlcNAc(b1-3)Gal(b1-4)GlcNAc(b1-3)[Neu5Ac(a2-6)Gal(b1-4)GlcNAc(b1-3)Gal(b1-4)GlcNAc(b1-6)]GalNAc
# How it was run: as §1
# [3] = biological target: Neu5Ac(a2-6)Gal(b1-4)GlcNAc(b1-3)Gal(b1-4)GlcNAc(b1-6)[Gal(b1-3)]GalNAc
# How it was run: as §1
# [4] = biological target: Neu5Ac(a2-6)Gal(b1-4)GlcNAc(b1-3)Gal(b1-4)[Fuc(a1-3)]GlcNAc(b1-3)Gal(b1-4)[Fuc(a1-3)]GlcNAc
# How it was run: as §1
# [5] = biological target: Neu5Ac(a2-6)Gal(b1-4)GlcNAc(b1-3)GalNAc
# How it was run: as §1
# [6] = biological target: Neu5Ac(a2-6)Gal(b1-4)GlcNAc(b1-3)[Neu5Ac(a2-6)Gal(b1-4)GlcNAc(b1-6)]GalNAc
# How it was run: as §1
# [7] = biological target: Neu5Ac(a2-6)Gal(b1-4)GlcNAc(b1-6)GalNAc
# How it was run: as §1
# [8] = biological target: Neu5Ac(a2-6)Gal(b1-4)GlcNAc(b1-6)[Gal(b1-3)GlcNAc(b1-3)]Gal(b1-4)Glc
# How it was run: as §1
# [9] = biological target: Neu5Ac(a2-6)Gal(b1-4)GlcNAc(b1-6)[Gal(b1-3)]GalNAc
# How it was run: as §1
# [10] = biological target: Neu5Ac(a2-6)Gal(b1-4)GlcNAc6S
# How it was run: as §1
# Neu5Ac(a2-6)GalNAc = biological target: Neu5Ac(a2-6)GalNAc
# How it was run: as §1
# [11] = biological target: Neu5Ac(a2-6)GalNAc(b1-4)GlcNAc
# How it was run: as §1
# [12] = biological target: Neu5Ac(a2-6)GalNAc(b1-4)GlcNAc6S
# How it was run: as §1
# [13] = biological target: Neu5Ac(a2-6)GlcNAc(b1-4)GlcNAc
# How it was run: as §1
# [14] = biological target: Neu5Ac(a2-6)GlcNAc(b1-4)GlcNAc(b1-4)GlcNAc
# How it was run: as §1
# Neu5Ac(a2-8)Neu5Ac = biological target: Neu5Ac(a2-8)Neu5Ac
# How it was run: as §1
# [15] = biological target: Neu5Ac(a2-8)Neu5Ac(a2-3)Gal(b1-3)GalNAc(b1-4)[Neu5Ac(a2-3)]Gal(b1-4)Glc
# How it was run: as §1
# [16] = biological target: Neu5Ac(a2-8)Neu5Ac(a2-3)Gal(b1-3)GalNAc(b1-4)[Neu5Ac(a2-8)Neu5Ac(a2-3)]Gal(b1-4)Glc
# How it was run: as §1
# [17] = biological target: Neu5Ac(a2-8)Neu5Ac(a2-3)Gal(b1-4)Glc
# How it was run: as §1
# [18] = biological target: Neu5Ac(a2-8)Neu5Ac(a2-3)Gal(b1-4)GlcNAc
# How it was run: as §1
# [19] = biological target: Neu5Ac(a2-8)Neu5Ac(a2-3)[Gal(b1-3)GalNAc(b1-4)]Gal(b1-4)Glc
# How it was run: as §1
# [20] = biological target: Neu5Ac(a2-8)Neu5Ac(a2-3)[GalNAc(b1-4)]Gal(b1-4)Glc
# How it was run: as §1
# [21] = biological target: Neu5Ac(a2-8)Neu5Ac(a2-8)Neu5Ac
# How it was run: as §1
# [22] = biological target: Neu5Ac(a2-8)Neu5Ac(a2-8)Neu5Ac(a2-3)Gal(b1-4)Glc
# How it was run: as §1
# [23] = biological target: Neu5Ac(a2-8)Neu5Ac(a2-8)Neu5Ac(a2-3)[Gal(b1-3)GalNAc(b1-4)]Gal(b1-4)Glc
# How it was run: as §1
# [24] = biological target: Neu5Ac(a2-8)Neu5Ac(a2-8)Neu5Ac(a2-3)[GalNAc(b1-4)]Gal(b1-4)Glc
# How it was run: as §1
# [25] = biological target: Neu5Ac(a2-8)Neu5Ac(a2-8)Neu5Ac(a2-8)Neu5Ac(a2-3)[GalNAc(b1-4)]Gal(b1-4)Glc
# How it was run: as §1
# [26] = biological target: Neu5Ac(a2-8)Neu5Gc(a2-3)Gal(b1-4)GlcNAc
# How it was run: as §1
# [27] = biological target: Neu5Ac(b2-6)Gal(b1-4)GlcNAc
# How it was run: as §1
# Neu5Ac(b2-6)GalNAc = biological target: Neu5Ac(b2-6)GalNAc
# How it was run: as §1
# [28] = biological target: Neu5Ac9Ac(a2-3)Gal(b1-3)GlcNAc
# How it was run: as §1
# [29] = biological target: Neu5Ac9Ac(a2-3)Gal(b1-4)GlcNAc
# How it was run: as §1
# [30] = biological target: Neu5Ac9Ac(a2-6)Gal(b1-4)GlcNAc
# How it was run: as §1
# [31] = biological target: Neu5Gc(a2-3)Gal(b1-3)GlcNAc
# How it was run: as §1
# [32] = biological target: Neu5Gc(a2-3)Gal(b1-3)[Fuc(a1-4)]GlcNAc
# How it was run: as §1
# Neu5Gc(a2-3)Gal(b1-4)Glc = biological target: Neu5Gc(a2-3)Gal(b1-4)Glc
# How it was run: as §1
# [33] = biological target: Neu5Gc(a2-3)Gal(b1-4)GlcNAc
# How it was run: as §1
# [34] = biological target: Neu5Gc(a2-3)Gal(b1-4)GlcNAc(b1-3)Gal(b1-4)GlcNAc(b1-2)Man(a1-3)[Neu5Gc(a2-3)Gal(b1-4)GlcNAc(b1-3)Gal(b1-4)GlcNAc(b1-2)Man(a1-6)]Man(b1-4)GlcNAc(b1-4)GlcNAc
# How it was run: as §1
# [35] = biological target: Neu5Gc(a2-3)Gal(b1-4)[Fuc(a1-3)]GlcNAc
# How it was run: as §1
# [36] = biological target: Neu5Gc(a2-6)Gal(b1-4)GlcNAc
# How it was run: as §1
# Neu5Gc(a2-6)GalNAc = biological target: Neu5Gc(a2-6)GalNAc
# How it was run: as §1
# [37] = biological target: Neu5Gc(a2-8)Neu5Ac(a2-3)Gal(b1-4)GlcNAc
# How it was run: as §1
# [38] = biological target: Neu5Gc(a2-8)Neu5Gc(a2-3)Gal(b1-4)GlcNAc
# How it was run: as §1
# [39] = biological target: Neu5Gc(a2-8)Neu5Gc(a2-3)Gal(b1-4)GlcNAc(b1-3)Gal(b1-4)GlcNAc
# How it was run: as §1
# [40] = biological target: Neu5Gc(a2-8)Neu5Gc(a2-6)Gal(b1-4)GlcNAc
# How it was run: as §1
# [41] = biological target: Neu5Gc(b2-6)Gal(b1-4)GlcNAc
# How it was run: as §1
binder,measurement,setting,value
PNGase F (Flavobacterium meningosepticum) (protein) GIPAPADNTVNIKTFDKVKNAFGDGLSQSAEGTFTFPADVTAVKTIKMFIKNECPNKTCDEWDRYANVYVKNKTTGEWYEIGRFITPYWVGTEKLPRGLEIDVTDFKSLLSGNTELKIYTETWLAKGREYSVDFDIVYGTPDYKYSAVVPVVQYNKSSIDGVPYGKAHTLALKKNIQLPTNTEKAYLRTTISGWGHAKPYDAGSRGCAEWCFRTHTIAINNSNTFQHQLGALGCSANPINNQSPGNWTPDRAGWCPGMAVPTRIDVLNNSLIGSTFSYEYKFQNWTNNGTNGDAFYAISSFVIAKSNTPISAPVVTNLDPHHHHHH,glycan array binding signal (z-score),[1],-0.282
same,glycan array binding signal (z-score),[2],-0.278
same,glycan array binding signal (z-score),[3],-0.378
same,glycan array binding signal (z-score),[4],-0.288
same,glycan array binding signal (z-score),[5],-0.208
same,glycan array binding signal (z-score),[6],-0.391
same,glycan array binding signal (z-score),[7],0.397
same,glycan array binding signal (z-score),[8],-0.207
same,glycan array binding signal (z-score),[9],-0.107
same,glycan array binding signal (z-score),[10],-0.286
same,glycan array binding signal (z-score),Neu5Ac(a2-6)GalNAc,-0.276
same,glycan array binding signal (z-score),[11],-0.408
same,glycan array binding signal (z-score),[12],-0.194
same,glycan array binding signal (z-score),[13],-0.428
same,glycan array binding signal (z-score),[14],0.094
same,glycan array binding signal (z-score),Neu5Ac(a2-8)Neu5Ac,-0.021
same,glycan array binding signal (z-score),[15],-0.328
same,glycan array binding signal (z-score),[16],0.226
same,glycan array binding signal (z-score),[17],-0.276
same,glycan array binding signal (z-score),[18],-0.461
same,glycan array binding signal (z-score),[19],-0.261
same,glycan array binding signal (z-score),[20],-0.399
same,glycan array binding signal (z-score),[21],0.84
same,glycan array binding signal (z-score),[22],-0.357
same,glycan array binding signal (z-score),[23],0.196
same,glycan array binding signal (z-score),[24],-0.338
same,glycan array binding signal (z-score),[25],-0.321
same,glycan array binding signal (z-score),[26],-0.287
same,glycan array binding signal (z-score),[27],-0.382
same,glycan array binding signal (z-score),Neu5Ac(b2-6)GalNAc,-0.443
same,glycan array binding signal (z-score),[28],-0.301
same,glycan array binding signal (z-score),[29],-0.393
same,glycan array binding signal (z-score),[30],-0.297
same,glycan array binding signal (z-score),[31],-0.088
same,glycan array binding signal (z-score),[32],0.219
same,glycan array binding signal (z-score),Neu5Gc(a2-3)Gal(b1-4)Glc,0.187
same,glycan array binding signal (z-score),[33],2.36
same,glycan array binding signal (z-score),[34],-0.251
same,glycan array binding signal (z-score),[35],-0.06
same,glycan array binding signal (z-score),[36],-0.046
same,glycan array binding signal (z-score),Neu5Gc(a2-6)GalNAc,-0.047
same,glycan array binding signal (z-score),[37],-0.379
same,glycan array binding signal (z-score),[38],-0.326
same,glycan array binding signal (z-score),[39],-0.362
same,glycan array binding signal (z-score),[40],-0.249
same,glycan array binding signal (z-score),[41],-0.065
